Data on five substances can be found in publication PMC10205607, “MAP4K3 inhibits Sirtuin-1 to repress the LKB1–AMPK pathway to promote amino acid-dependent activation of the mTORC1 complex” (Life Science Alliance, 2023).

Protein sequences, listed by entry. Tags and fused reporters are not part of them. Lines headed by an entry give the natural chain unless they say otherwise; changes in a name come on top.
UniProt Q8IVH8: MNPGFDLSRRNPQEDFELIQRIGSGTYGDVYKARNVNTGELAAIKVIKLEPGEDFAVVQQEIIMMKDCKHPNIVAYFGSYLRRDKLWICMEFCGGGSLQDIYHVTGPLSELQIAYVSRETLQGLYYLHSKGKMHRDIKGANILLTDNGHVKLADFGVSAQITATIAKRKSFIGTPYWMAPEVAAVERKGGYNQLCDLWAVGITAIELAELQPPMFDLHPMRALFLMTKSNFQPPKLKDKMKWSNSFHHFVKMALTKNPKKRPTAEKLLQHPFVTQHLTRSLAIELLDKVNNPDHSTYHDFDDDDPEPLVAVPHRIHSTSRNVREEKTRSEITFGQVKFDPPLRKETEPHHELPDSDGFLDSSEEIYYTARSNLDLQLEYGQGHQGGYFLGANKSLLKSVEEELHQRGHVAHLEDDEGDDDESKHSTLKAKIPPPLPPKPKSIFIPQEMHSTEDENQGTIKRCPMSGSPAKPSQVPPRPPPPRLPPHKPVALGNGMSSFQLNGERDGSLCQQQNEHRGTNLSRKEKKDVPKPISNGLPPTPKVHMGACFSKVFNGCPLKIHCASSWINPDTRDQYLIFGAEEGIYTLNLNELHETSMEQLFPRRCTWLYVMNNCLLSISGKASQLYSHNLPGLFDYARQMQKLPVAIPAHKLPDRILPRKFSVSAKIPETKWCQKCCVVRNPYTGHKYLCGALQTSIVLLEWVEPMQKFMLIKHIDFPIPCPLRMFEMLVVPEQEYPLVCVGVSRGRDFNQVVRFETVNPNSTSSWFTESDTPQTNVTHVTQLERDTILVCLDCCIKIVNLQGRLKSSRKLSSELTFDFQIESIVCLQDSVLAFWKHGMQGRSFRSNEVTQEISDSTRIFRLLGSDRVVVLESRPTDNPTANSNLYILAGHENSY
UniProt Q96EB6: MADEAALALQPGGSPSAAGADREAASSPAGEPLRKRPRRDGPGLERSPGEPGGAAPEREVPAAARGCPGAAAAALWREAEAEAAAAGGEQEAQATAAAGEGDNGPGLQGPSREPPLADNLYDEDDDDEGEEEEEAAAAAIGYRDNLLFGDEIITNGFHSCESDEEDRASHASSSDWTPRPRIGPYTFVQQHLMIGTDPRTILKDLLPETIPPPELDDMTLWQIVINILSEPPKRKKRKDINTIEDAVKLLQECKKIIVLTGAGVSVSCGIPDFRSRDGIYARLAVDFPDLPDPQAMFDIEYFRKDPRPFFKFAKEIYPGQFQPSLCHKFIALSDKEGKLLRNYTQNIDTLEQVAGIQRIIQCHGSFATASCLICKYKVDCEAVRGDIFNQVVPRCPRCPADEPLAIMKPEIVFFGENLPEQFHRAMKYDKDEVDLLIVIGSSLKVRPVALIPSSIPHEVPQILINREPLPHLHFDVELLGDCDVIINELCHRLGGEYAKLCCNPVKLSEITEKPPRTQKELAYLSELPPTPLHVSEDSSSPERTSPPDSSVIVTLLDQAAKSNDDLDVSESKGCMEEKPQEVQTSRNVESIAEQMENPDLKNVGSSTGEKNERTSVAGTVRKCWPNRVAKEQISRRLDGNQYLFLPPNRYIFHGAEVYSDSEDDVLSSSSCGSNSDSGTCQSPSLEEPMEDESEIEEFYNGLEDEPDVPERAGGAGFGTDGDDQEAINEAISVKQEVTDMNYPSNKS

These are yes or no findings as the source states them, for the method shown. In cells and extracts the contact can be indirect. Some results given as binding are weak or reduced against the parent protein; the word gives no strength.

In this test the target is WT-MAP4K3-FLAG (UniProt Q8IVH8). Nature of the test: co-IP; anti-FLAG IP from lysates of co-transfected HEK293A cells (WT or MAP4K3 k.o.), blot with anti-HA and anti-FLAG; lysis buffer 25 mM HEPES-KOH pH 7.4, 150 mM NaCl, 5 mM EDTA, 1% Triton X-100; 2 h at 4°C.
On to “SIRT1:1–114 (HA-tagged) (from UniProt Q96EB6 1-114) (domain or fragment)”, for which the binding entry is “no binding”.
To “SIRT1:1–465 (HA-tagged) (from UniProt Q96EB6 1-465) (domain or fragment)” belongs “binds”; to “SIRT1:1–698 (HA-tagged) (from UniProt Q96EB6 1-698) (domain or fragment)”, “binds”.
To “SIRT1:142–747 (HA-tagged) (from UniProt Q96EB6 142-747) (domain or fragment)” belongs “binds”; to “SIRT1:465–747 (HA-tagged) (from UniProt Q96EB6 465-747) (domain or fragment)”, “no binding”.
